# Reference: the supplement of paper PMC11876631
# ± gives the standard deviation of the averaged measurements. Laboratory Escherichia coli strains with one amino-acid change in an essential protein, pooled on minimal glucose agar with carbenicillin or gentamicin at twice the control MIC (plus kanamycin and chloramphenicol for the plasmids), 48 h. Fold change of barcode share against drug-free plates; higher = less susceptible. Active = above 20 in both replicates (the paper's putatively resistant). '<' = one read or none on drug, '>' = one read or none on a drug-free plate. Shares are relative, so most strains fall below 1 when a few take over. Listed are strains with at least 15 reads on both drug-free plates, and hits; most hits rest on fewer reference reads. Replicate rank correlation about 0.5. Edits are read from barcodes.
# B1: ftsW F300A (protein)
# chain: MRLSLPRLKMPRLPGFSILVWISTALKGWVMGSREKDTDSLIMYDRTLLWLTFGLAAIGFIMVTSASMPIGQRLTNDPFFFAKRDGVYLILAFILAIITLRLPMEFWQRYSATMLLGSIILLMIVLVVGSSVKGASRWIDLGLLRIQPAELTKLSLFCYIANYLVRKGDEVRNNLRGFLKPMGVILVLAVLLLAQPDLGTVVVLFVTTLAMLFLAGAKLWQFIAIIGMGISAVVLLILAEPYRIRRVTAFWNPWEDPFGSGYQLTQSLMAFGRGELWGQGLGNSVQKLEYLPEAHTDFIAAIIGEELGYVGVVLALLMVFFVAFRAMSIGRKALEIDHRFSGFLACSIGIWFSFQALVNVGAAAGMLPTKGLTLPLISYGGSSLLIMSTAIMMLLRIDYETRLEKAQAFVRGSR
# B2: ftsW F300P (protein)
# chain: MRLSLPRLKMPRLPGFSILVWISTALKGWVMGSREKDTDSLIMYDRTLLWLTFGLAAIGFIMVTSASMPIGQRLTNDPFFFAKRDGVYLILAFILAIITLRLPMEFWQRYSATMLLGSIILLMIVLVVGSSVKGASRWIDLGLLRIQPAELTKLSLFCYIANYLVRKGDEVRNNLRGFLKPMGVILVLAVLLLAQPDLGTVVVLFVTTLAMLFLAGAKLWQFIAIIGMGISAVVLLILAEPYRIRRVTAFWNPWEDPFGSGYQLTQSLMAFGRGELWGQGLGNSVQKLEYLPEAHTDFIPAIIGEELGYVGVVLALLMVFFVAFRAMSIGRKALEIDHRFSGFLACSIGIWFSFQALVNVGAAAGMLPTKGLTLPLISYGGSSLLIMSTAIMMLLRIDYETRLEKAQAFVRGSR
# B3: argC F77W (protein)
# chain: MLNTLIVGASGYAGAELVTYVNRHPHMNITALTVSAQSNDAGKLISDLHPQLKGIVDLPLQPMSDISEFSPGVDVVWLATAHEVSHDLAPQFLEAGCVVFDLSGAFRVNDATFYEKYYGFTHQYPELLEQAAYGLAEWCGNKLKEANLIAVPGCYPTAAQLALKPLIDADLLDLNQWPVINATSGVSGAGRKAAISNSFCEVSLQPYGVFTHRHQPEIATHLGADVIFTPHLGNFPRGILETITCRLKSGVTQAQVAQVLQQAYAHKPLVRLYDKGVPALKNVVGLPFCDIGFAVQGEHLIIVATEDNLLKGAAAQAVQCANIRFGYAETQSLI
# B4: ftsY I400A (protein)
# chain: MAKEKKRGFFSWLGFGQKEQTPEKETEVQNEQPVVEEIVQAQEPVKASEQAVEEQPQAHTEAEAETFAADVVEVTEQVAESEKAQPEAEVVAQPEPVVEETPEPVAIEREELPLPEDVNAEAVSPEEWQAEAETVEIVEAAEEEAAKEEITDEELETALAAEAAEEAVMVVPPAEEEQPVEEIAQEQEKPTKEGFFARLKRSLLKTKENLGSGFISLFRGKKIDDDLFEELEEQLLIADVGVETTRKIITNLTEGASRKQLRDAEALYGLLKEEMGEILAKVDEPLNVEGKAPFVILMVGVNGVGKTTTIGKLARQFEQQGKSVMLAAGDTFRAAAVEQLQVWGQRNNIPVIAQHTGADSASVIFDAIQAAKARNIDVLIADTAGRLQNKSHLMEELKKAVRVMKKLDVEAPHEVMLTIDASTGQNAVSQAKLFHEAVGLTGITLTKLDGTAKGGVIFSVADQFGIPIRYIGVGERIEDLRPFKADDFIEALFARED
# B5: ftsY I400W (protein)
# chain: MAKEKKRGFFSWLGFGQKEQTPEKETEVQNEQPVVEEIVQAQEPVKASEQAVEEQPQAHTEAEAETFAADVVEVTEQVAESEKAQPEAEVVAQPEPVVEETPEPVAIEREELPLPEDVNAEAVSPEEWQAEAETVEIVEAAEEEAAKEEITDEELETALAAEAAEEAVMVVPPAEEEQPVEEIAQEQEKPTKEGFFARLKRSLLKTKENLGSGFISLFRGKKIDDDLFEELEEQLLIADVGVETTRKIITNLTEGASRKQLRDAEALYGLLKEEMGEILAKVDEPLNVEGKAPFVILMVGVNGVGKTTTIGKLARQFEQQGKSVMLAAGDTFRAAAVEQLQVWGQRNNIPVIAQHTGADSASVIFDAIQAAKARNIDVLIADTAGRLQNKSHLMEELKKWVRVMKKLDVEAPHEVMLTIDASTGQNAVSQAKLFHEAVGLTGITLTKLDGTAKGGVIFSVADQFGIPIRYIGVGERIEDLRPFKADDFIEALFARED
# B6: ftsY I400Q (protein)
# chain: MAKEKKRGFFSWLGFGQKEQTPEKETEVQNEQPVVEEIVQAQEPVKASEQAVEEQPQAHTEAEAETFAADVVEVTEQVAESEKAQPEAEVVAQPEPVVEETPEPVAIEREELPLPEDVNAEAVSPEEWQAEAETVEIVEAAEEEAAKEEITDEELETALAAEAAEEAVMVVPPAEEEQPVEEIAQEQEKPTKEGFFARLKRSLLKTKENLGSGFISLFRGKKIDDDLFEELEEQLLIADVGVETTRKIITNLTEGASRKQLRDAEALYGLLKEEMGEILAKVDEPLNVEGKAPFVILMVGVNGVGKTTTIGKLARQFEQQGKSVMLAAGDTFRAAAVEQLQVWGQRNNIPVIAQHTGADSASVIFDAIQAAKARNIDVLIADTAGRLQNKSHLMEELKKQVRVMKKLDVEAPHEVMLTIDASTGQNAVSQAKLFHEAVGLTGITLTKLDGTAKGGVIFSVADQFGIPIRYIGVGERIEDLRPFKADDFIEALFARED
# B7: ftsY I400P (protein)
# chain: MAKEKKRGFFSWLGFGQKEQTPEKETEVQNEQPVVEEIVQAQEPVKASEQAVEEQPQAHTEAEAETFAADVVEVTEQVAESEKAQPEAEVVAQPEPVVEETPEPVAIEREELPLPEDVNAEAVSPEEWQAEAETVEIVEAAEEEAAKEEITDEELETALAAEAAEEAVMVVPPAEEEQPVEEIAQEQEKPTKEGFFARLKRSLLKTKENLGSGFISLFRGKKIDDDLFEELEEQLLIADVGVETTRKIITNLTEGASRKQLRDAEALYGLLKEEMGEILAKVDEPLNVEGKAPFVILMVGVNGVGKTTTIGKLARQFEQQGKSVMLAAGDTFRAAAVEQLQVWGQRNNIPVIAQHTGADSASVIFDAIQAAKARNIDVLIADTAGRLQNKSHLMEELKKPVRVMKKLDVEAPHEVMLTIDASTGQNAVSQAKLFHEAVGLTGITLTKLDGTAKGGVIFSVADQFGIPIRYIGVGERIEDLRPFKADDFIEALFARED
# B8: argC F77Q (protein)
# chain: MLNTLIVGASGYAGAELVTYVNRHPHMNITALTVSAQSNDAGKLISDLHPQLKGIVDLPLQPMSDISEFSPGVDVVQLATAHEVSHDLAPQFLEAGCVVFDLSGAFRVNDATFYEKYYGFTHQYPELLEQAAYGLAEWCGNKLKEANLIAVPGCYPTAAQLALKPLIDADLLDLNQWPVINATSGVSGAGRKAAISNSFCEVSLQPYGVFTHRHQPEIATHLGADVIFTPHLGNFPRGILETITCRLKSGVTQAQVAQVLQQAYAHKPLVRLYDKGVPALKNVVGLPFCDIGFAVQGEHLIIVATEDNLLKGAAAQAVQCANIRFGYAETQSLI
# B9: ftsY F458A (protein)
# chain: MAKEKKRGFFSWLGFGQKEQTPEKETEVQNEQPVVEEIVQAQEPVKASEQAVEEQPQAHTEAEAETFAADVVEVTEQVAESEKAQPEAEVVAQPEPVVEETPEPVAIEREELPLPEDVNAEAVSPEEWQAEAETVEIVEAAEEEAAKEEITDEELETALAAEAAEEAVMVVPPAEEEQPVEEIAQEQEKPTKEGFFARLKRSLLKTKENLGSGFISLFRGKKIDDDLFEELEEQLLIADVGVETTRKIITNLTEGASRKQLRDAEALYGLLKEEMGEILAKVDEPLNVEGKAPFVILMVGVNGVGKTTTIGKLARQFEQQGKSVMLAAGDTFRAAAVEQLQVWGQRNNIPVIAQHTGADSASVIFDAIQAAKARNIDVLIADTAGRLQNKSHLMEELKKIVRVMKKLDVEAPHEVMLTIDASTGQNAVSQAKLFHEAVGLTGITLTKLDGTAKGGVIASVADQFGIPIRYIGVGERIEDLRPFKADDFIEALFARED
# B10: ftsY F458W (protein)
# chain: MAKEKKRGFFSWLGFGQKEQTPEKETEVQNEQPVVEEIVQAQEPVKASEQAVEEQPQAHTEAEAETFAADVVEVTEQVAESEKAQPEAEVVAQPEPVVEETPEPVAIEREELPLPEDVNAEAVSPEEWQAEAETVEIVEAAEEEAAKEEITDEELETALAAEAAEEAVMVVPPAEEEQPVEEIAQEQEKPTKEGFFARLKRSLLKTKENLGSGFISLFRGKKIDDDLFEELEEQLLIADVGVETTRKIITNLTEGASRKQLRDAEALYGLLKEEMGEILAKVDEPLNVEGKAPFVILMVGVNGVGKTTTIGKLARQFEQQGKSVMLAAGDTFRAAAVEQLQVWGQRNNIPVIAQHTGADSASVIFDAIQAAKARNIDVLIADTAGRLQNKSHLMEELKKIVRVMKKLDVEAPHEVMLTIDASTGQNAVSQAKLFHEAVGLTGITLTKLDGTAKGGVIWSVADQFGIPIRYIGVGERIEDLRPFKADDFIEALFARED
# B11: ftsY F458P (protein)
# chain: MAKEKKRGFFSWLGFGQKEQTPEKETEVQNEQPVVEEIVQAQEPVKASEQAVEEQPQAHTEAEAETFAADVVEVTEQVAESEKAQPEAEVVAQPEPVVEETPEPVAIEREELPLPEDVNAEAVSPEEWQAEAETVEIVEAAEEEAAKEEITDEELETALAAEAAEEAVMVVPPAEEEQPVEEIAQEQEKPTKEGFFARLKRSLLKTKENLGSGFISLFRGKKIDDDLFEELEEQLLIADVGVETTRKIITNLTEGASRKQLRDAEALYGLLKEEMGEILAKVDEPLNVEGKAPFVILMVGVNGVGKTTTIGKLARQFEQQGKSVMLAAGDTFRAAAVEQLQVWGQRNNIPVIAQHTGADSASVIFDAIQAAKARNIDVLIADTAGRLQNKSHLMEELKKIVRVMKKLDVEAPHEVMLTIDASTGQNAVSQAKLFHEAVGLTGITLTKLDGTAKGGVIPSVADQFGIPIRYIGVGERIEDLRPFKADDFIEALFARED
# Biological target: Escherichia coli (laboratory strain)
# Assay: barcode share on antibiotic plates over drug-free plates; higher = less susceptible
# Settings: antibiotic: carbenicillin; 2× MIC (3.1 µg/mL)
# Protocol: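 A pool of E. coli strains, each edited to carry one amino-acid change in an essential protein, was grown for 48 h on minimal glucose agar with or without antibiotic; strain barcodes were sequenced; mean of two replicates.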
row,Protein,fold change of barcode share
1,B1,0.195 ± 0.048
2,B2,0.0757 ± 0.012
3,B3,1.51 ± 0.9
4,B4,0.336 ± 0.066
5,B5,0.369 ± 0.21
6,B6,0.172 ± 0.002
7,B7,0.451 ± 0.19
8,B8,0.728 ± 0.024
9,B9,0.329 ± 0.018
10,B10,0.805 ± 0.69
11,B11,0.325 ± 0.084

# Same assay, conditions: antibiotic: gentamicin; 2× MIC (MIC 0.45 µg/mL)
row,Protein,fold change of barcode share
1,B1,< 0.0105
2,B2,< 0.0126
3,B3,0.0273 ± 0.014
4,B4,< 0.0103
5,B5,0.0192 ± 0.0068
6,B6,< 0.0215
7,B7,< 0.015
8,B8,0.0152 ± 0.013
9,B9,0.147 ± 0.096
10,B10,0.00325 ± 0.00027
11,B11,0.0134 ± 0.016
